Measurements taken from PubChem BioAssay AID1963576 (National Center for Advancing Translational Sciences (NCATS), 2024).
The whole screen tested about 46,000 compounds, of which about 60 (0.1%) were called active. Another 3% or so got no clear call; they are omitted. The call rests on the fitted dose curve; in most records, active means well fitted inhibition curve with a large enough effect; inconclusive means small, poorly fitted or top-dose-only effect; inactive means no such curve, though single readings can be large or run the other way. This is one part of the list.

Assay: Primary qHTS assay for Inhibitors of ovarian cancer metastasis using an organotypic tumor microenvironment (TME) model. Further: nearly all actives have a fitted effect of over 65% in size.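 On activity change, negative = inhibition: plate controls were DMSO wells for no effect and tomatine positive control wells for full effect.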
Conditions: SKOV3ip1-GFP adhesion/invasion on 3D omental model, fluorescence; series mostly up to 45.8 µM; activity change, negative = inhibition: at the top concentration
Procedure, shortened: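 Primary human omental fibroblast/mesothelial 3D culture pre-formed 48 h. SKOV3ip1-GFP cells added with compounds (0.36-46 umol/L), incubated 2 h RT/16 h 37 C, fixed; GFP cells quantified at 488/509 nm.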

Activity change, negative = inhibition, inactive:
CN(C)CCc1c[nH]c2ccc(Cn3cncn3)cc12 13.5%
CCCN(CCC)C(=O)c1c[nH]c2ccc(S(=O)(=O)N(C)c3ccc(Cl)cc3)cc2c1=O -2.98%
COc1cccc(CNC(=O)CCc2c(C)c3cc4c(C)coc4cc3oc2=O)c1 -5.63%
O=C(CSc1nc(=O)n(Cc2ccncc2)c2c1CCC2)Nc1ccccc1 32%
COc1ccc(Cn2ccc3nc(C)c(C(=O)Nc4ccc(OC)c(OC)c4)cc3c2=O)cc1 80.9%
CCCC(=O)N(c1ccc2oc3c(c2c1)CCCC3)S(=O)(=O)c1ccc(CC)cc1 3.64%
O=c1c(S(=O)(=O)c2ccccc2)cn(Cc2ccc(F)cc2)c2cc(N3CCCC3)c(F)cc12 -14.5%
COc1cccc(CNC(=O)C2CCC(CNS(=O)(=O)c3cccs3)CC2)c1 (stereo not given) 4.9%
COc1ccc(C=Cc2cc(OC)c(OC)c(OC)c2)cc1NC(=O)[C@H](N)CO 29.1%
COc1ccc(NCc2nc3ccccc3n2CCOc2ccccc2C)cc1 0.649%
COc1cccc(NC(=O)c2sc(-n3nc(C)c(Cc4ccccc4Cl)c3C)nc2C)c1 15.8%
COc1ccc(OC)c(-n2c(=O)[nH]c3cc(C(=O)NCCc4ccc(OC)c(OC)c4)ccc3c2=O)c1 -5.88%
Cc1ccccc1NC(=O)c1ccc(NC(=O)N2CCSc3ncccc32)cc1 32.6%
COCCn1c(C)cc(O)c(C(c2ccccc2)N2CCN(c3ccc(F)cc3)CC2)c1=O (stereo not given) 7.77%
Cc1ccc(CNS(=O)(=O)c2ccc(F)c(C(=O)Nc3ccc(C)c(F)c3)c2)cc1 -23.6%
Cc1ccc(N(C)C(=O)Cn2nc(Cc3ccncc3)c3ccccc3c2=O)cc1C 2.43%
O=C(NCCc1ccc(Cl)cc1)c1ccc(CS(=O)(=O)Cc2ccc(F)cc2)o1 -6.39%
O=C(Nc1ccc(F)cc1)c1ccc(-n2cnc3cccnc32)cc1 -2.33%
O=C(NCCS(=O)(=O)N1CCN(c2ccccc2F)CC1)c1cc(=O)c2ccccc2o1 -23.8%
COc1cccc(COC(=O)c2nn(-c3ccccc3)nc2N)c1 -8.24%
CCN(CC)c1ccc(NC(=O)CCS(=O)(=O)c2cccc3nsnc23)c(C)c1 0.0448%
CCOC(=O)c1[nH]c(C)c(CCC(=O)Nc2cc(Cl)ccc2C)c1C -2.2%
Cc1ccc(CNC(=O)C2CCN(c3nn4cc(-c5ccc(F)cc5)nc4s3)CC2)cc1 9.87%
CCOc1ccc(-c2nc(Cn3c(=O)cc(-c4ccccc4)c4c(C)nn(C)c43)c(C)o2)cc1OC -2.96%
COc1cc(OC)c(NC(=O)C(C)n2c(=O)cc(-c3ccccc3)c3c(C)nn(C)c32)cc1Cl (stereo not given) -2.95%
Cc1csc2nc(COC(=O)c3ccccc3NC(=O)c3ccccc3Cl)cc(=O)n12 -6.28%
CNC(=O)C1CCC(Cn2c(=O)c3sccc3n(Cc3ccccc3)c2=O)CC1 (stereo not given) 4.14%
COc1ccccc1CCNC(=O)c1cc2c(=O)n3cccc(C)c3nc2n1C -4.1%
Cc1cn2c(=O)cc(COC(=O)c3cccc(NC(=O)C(C)Oc4ccccc4)c3)nc2s1 (stereo not given) 0.824%
CCOc1ccccc1NC(=O)c1c(NC(=O)C(C)Oc2cccc(Cl)c2)sc2c1CCCCC2 (stereo not given) 0.168%
Cc1cc(S(=O)(=O)Nc2cc3c(cc2C)n(C)c(=O)c(=O)n3C)ccc1F 4.7%
CCSC1=NC2(CCN(C(=O)NC3CCCCC3)CC2)N=C1c1ccc(C)cc1 1.15%
COc1cccc(OCc2nc3ccccc3n2Cc2ccccc2)c1 -15.2%
COc1cccc(CNC(=O)C(=O)NCC(c2cccs2)S(=O)(=O)c2cccs2)c1 (stereo not given) 11%
CCOc1ccc(CC(=O)Nc2c(C(=O)c3ccc(Cl)cc3)oc3ccccc23)cc1OCC -4.95%
Cc1cccc(S(=O)(=O)c2cn(Cc3ccccc3)c3cc(N4CCC(C)CC4)c(F)cc3c2=O)c1 -4.04%
CCc1ccc(NC(=O)CN2C(=O)C3(SCC(=O)N3c3ccccc3)c3ccccc32)cc1 (stereo not given) -3.7%
Cc1ccc(Nc2nc(C)cc(C)n2)c(C(=O)O)c1 -10.7%
COc1ccc(NC(=O)c2sc3nc(C)c(C(=O)Nc4ccc(C)cc4C)c(-c4ccc(C)o4)c3c2N)cc1 3.09%
COc1ccc(NC(=O)Cn2nc(-c3ccncc3)ccc2=O)cc1Cl 7.11%
Cc1ccc(Cl)cc1NC(=O)CSC1=Nc2ccccc2C2=NC(Cc3ccccc3)C(=O)N12 (stereo not given) -6.45%
CC1(C)CC(=O)c2cc(-c3nc(-c4ccc(Cl)cc4)cs3)c(=O)n(-c3ccc(Cl)cc3)c2C1 -21.9%
COc1ccc(NC(=O)CSc2nc3ccccc3n2CC(=O)N(C)c2ccc(F)cc2)cc1 -6.47%
Cc1ccc(NC(=O)/C(C#N)=C/c2ccc(C)o2)cc1 -5.12%
COc1ccc(CCNc2ncnc3c2cnn3-c2cccc(Cl)c2)cc1 -1.32%
Cc1cc(C)n(CCc2nc3c4ccccc4nc(N4CCN(c5ccccc5F)CC4)n3n2)n1 7.32%

outcome, inactive:
COc1cccc(N2CCN(C(=O)CCn3nc(C)c(S(=O)(=O)N4CCCC4)c3C)CC2)c1
Cc1ccc(OCc2cc(=O)n3c4c(sc3n2)CCCC4)c(C)c1
CC1CCN(S(=O)(=O)c2ccc3c(c2)N(CC(=O)NCc2ccccc2Cl)C(=O)CO3)CC1
COC(=O)c1c(SC)nc2ccccc2c1OCc1cccc(C)c1
CCC(CC)C(=O)Nc1cccc(-c2nc3cccnc3s2)c1
COc1ccc(C(=O)NCC(c2cccnc2)N2CCc3ccccc3C2)cc1 (stereo not given)
CCc1ccc(NC(=O)N2CC=C(c3c[nH]c4ccccc34)CC2)cc1
Cc1cc(C)c2c(n1)nn1c(C)c(CCC(=O)Nc3ccc(C)c(Cl)c3)c(C)nc21
COc1ccc(-n2nc3cc(C)c(NC(=O)COc4cccc(C)c4)cc3n2)cc1
CC1=C(C(=O)Nc2ccc(Cl)cc2)C(c2cccs2)n2nc(SCc3cccc(Cl)c3)nc2N1 (stereo not given)
CCn1c(Oc2ccc(F)cc2F)nc2c1c(=O)n(C)c(=O)n2C
COc1ccc(OCCCCn2c(C3CC(=O)N(c4cccc(Cl)c4)C3)nc3ccccc32)cc1 (stereo not given)
Cc1ccc(Cn2ccnc2SCC(=O)NCc2ccc(F)cc2)cc1
CC(C)CCNC(=O)c1ccc2c(c1)NC(=O)C(CS(=O)(=O)Cc1cccc(Br)c1)N2 (stereo not given)
